In all, about 48,000 compounds went through this assay and about 1,200 (2.5%) were called active. Roughly 2% stayed inconclusive and do not appear here.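 Rule for the calls: active = activation of at least 60% and not above a set upper limit (about 1 call in 100 departs from these limits); inconclusive = activation of 40% to 60%, or above that upper limit; inactive = activation under 40%.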 This is one part of the list.
Each compound was assayed against Probable G-protein coupled receptor 32 (Homo sapiens) (UniProt O75388) (assay: qHTS for Agonists of Human Resolvin D1 Receptor DRV1). Settings: CHO-K1 GPR32 beta-arrestin PathHunter luminescence, 90 min; at 76.9 µM; hits give high values; zero percent set by DMSO-only wells.
Sequence of UniProt O75388 (O75388 whole entry, looked up, the tested form may be a part): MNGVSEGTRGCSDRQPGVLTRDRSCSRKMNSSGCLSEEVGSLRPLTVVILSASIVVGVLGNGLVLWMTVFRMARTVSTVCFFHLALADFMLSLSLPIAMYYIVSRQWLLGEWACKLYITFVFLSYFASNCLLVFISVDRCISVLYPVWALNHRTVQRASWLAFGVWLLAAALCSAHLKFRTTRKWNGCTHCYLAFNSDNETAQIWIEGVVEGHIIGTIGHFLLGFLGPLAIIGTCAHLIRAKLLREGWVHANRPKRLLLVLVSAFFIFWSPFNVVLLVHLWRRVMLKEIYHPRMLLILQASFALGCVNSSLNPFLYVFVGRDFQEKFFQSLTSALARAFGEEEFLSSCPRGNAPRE
How it was run: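 Agonism was scored as beta-arrestin recruitment to ProLink-fused GPR32 in stably transfected CHO-K1 cells, giving a chemiluminescent beta-Gal signal; compounds were incubated 90 min at 37 °C.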
Note: 0% is about no effect.

activation, inactive:
CC(=O)c1cc(-c2ccccc2)n(CCC(=O)NCc2ccc(C)cc2)c1C -21%
CCc1ccc(NC(=O)Cn2c(=O)n(CCCCC(=O)NCc3ccc4c(c3)OCO4)c(=O)c3ccccc32)cc1 -6.24%
CCOc1ccccc1Nc1sc(C(=O)c2ccccc2)c(N)c1C(=O)Nc1ccccc1 -71.8%
COc1ccc(-c2noc(N(c3nc(-c4ccc(OC)c(OC)c4)no3)c3ccccc3OC)n2)cc1OC -0.772%
COc1ccc(-c2nn3c(=O)cc(CN4CCN(C(=O)c5ccc(OC)c(OC)c5)CC4)nc3s2)cc1 -11.1%
CCOc1ccccc1CNc1ccc2cc(S(=O)(=O)N3CCC(C)CC3)ccc2n1 -7.67%
CC(C)(C)c1ccc(C(=O)Nc2ccc3c(c2)CCCN3C(=O)c2cccs2)cc1 -3.07%
CCOc1ccccc1NC(=O)c1ccc2c(Cl)c3c(nc2c1)CCC3 26%
COc1cc(NC(=O)CN2c3ccccc3S(=O)(=O)c3ccccc32)cc(OC)c1 -6.31%
CCCC(O)c1nc2ccccc2n1Cc1ccccc1OC (centres undefined) 24.1%
CCC1CN(C(=O)N2CCC(C(=O)NCCc3ccccc3Cl)CC2)c2cc(C)ccc2O1 (centres undefined) -15.2%
Cc1ccc(Nc2nnc(-c3ccc(C)c(S(=O)(=O)N4CCN(C)CC4)c3)c3ccccc23)cc1 9.13%
CCOCCCn1c(SCC(=O)OCC)nc2c(sc3ccccc32)c1=O 1.88%
COCCNC(=O)CSc1nc(-c2cc(OC)c(OC)c(OC)c2)[nH]c1-c1ccc(Cl)cc1 -22%
Cc1cccc(C(C)C)c1NC(=O)C1CCCN1S(=O)(=O)c1cccc2nsnc12 (centres undefined) -10.2%
Cc1ccc(C(=O)CSc2nc(-c3ccccc3)nc3c2CCCC3)c(C)c1 -10.7%
COc1ccc(CCNC(=O)C2CCC(CNS(=O)(=O)c3ccc(C)cc3)CC2)cc1OC (centres undefined) 0.268%
CNC(=O)C1CCC(Cn2c(=O)c3sccc3n(CC(=O)Nc3ccc(C)c(C)c3)c2=O)CC1 (centres undefined) -8.71%
O=S(=O)(c1ccccc1)c1nnn2c1nc(NC1CCCCC1)c1sccc12 2.28%
CCCCn1cc(S(=O)(=O)c2ccc(OC)cc2)c(=O)c2cc(CC)ccc21 -19.5%
Nc1ncnc2c1nc(Sc1ccc(Cl)cc1)n2[C@H]1OC2COP(=O)(O)O[C@@H]2C1O (some centres undefined) 4.87%
CCc1ccc(NC(=O)CN(c2ccc(C)cc2)S(=O)(=O)c2cccs2)cc1 -2.83%
COc1ccc(-c2cc(C)no2)cc1S(=O)(=O)N1CCc2ccccc21 -18.5%
Cn1c(=O)c2c(SCC(=O)Nc3ccccc3C(F)(F)F)nc(C3CCCC3)nc2n(C)c1=O 4.46%
Cc1ccc(Cl)cc1NC(=O)Nc1nnc(N(C)Cc2ccccc2)s1 -18.4%
O=C(O)CCCCn1c(SCC(=O)Nc2ccccc2C(F)(F)F)nc2ccsc2c1=O -17.4%
Cc1ccc(CN(C(=O)c2ccccc2)c2ccccn2)o1 -5.25%
O=C(Nc1cccc(C(=O)N2CCN(c3cccc(Cl)c3)CC2)c1)c1nsc2ccccc12 -13.1%
COc1cc(OC)c(NC(=O)c2nn(-c3ccc(C)cc3)c(=O)c3c2c2ccccc2n3C)cc1Cl -1.46%
Cc1ccccc1Cn1c2ccccc2c2cnn(CC(=O)NCC(C)c3ccccc3)c(=O)c21 (centres undefined) -8.18%
Cc1c(C)n(Cc2ccccc2)c2ccc(C(=O)OCCN(C)C)cc12 5.2%
CCc1ccccc1NC(=O)c1ccc2c(SCC(=O)O)c3c(nc2c1)CCC3 -1.48%
O=C(NCc1ccccc1Cl)c1ccc(Cn2c(SCc3ccccc3)nc3cccnc32)cc1 -4.83%
CCOC(=O)C1CCN(C(=O)c2ccc(NC(=O)c3nsc4ccccc34)cc2)CC1 -4.36%
CSc1ccc(CCNC(=O)C(C)n2nc(C)c3sc4ccccc4c3c2=O)cc1 (centres undefined) -9.76%
CCOc1ccc(C2c3c(oc4ccc(C)cc4c3=O)C(=O)N2CCCN(C)C)cc1 (centres undefined) -6.48%
O=C(CCn1ccc2cc(S(=O)(=O)N3CCCC3)ccc21)NCc1cccc(Cl)c1 10.5%
CC(=O)N1c2ccc(S(=O)(=O)NCC3CCC(C(=O)Nc4ccc(C)c(C)c4)CC3)cc2CC1C (centres undefined) -7.5%
Cc1ccc(NC(=O)c2ccc(CNS(=O)(=O)c3ccc4c(c3)C(C)(C)C(=O)N4C)cc2)cc1C 2.43%
Cc1cc(C(=O)NCc2cccc(Br)c2)c2c(C)nn(-c3ccccc3)c2n1 -7.43%
COc1ccc(OC)c(Nc2ncnc3c2nc2n3CCCC2)c1 -6.51%
COCCCn1c(=N)c(C(=O)NCc2cccnc2)cc2c(=O)n3cc(C)ccc3nc21 -7.87%
Nc1ncnc2n[nH]c(Nc3ccc(F)cc3)c12 -5.59%
COc1cc(CCNC(=O)c2ccc3c(c2)c(C)c(C)n3Cc2cccc(C)c2)cc(OC)c1OC -22.6%
CCc1nnc(SCc2ccc(OC)cc2)c2cc3sc(C)cc3n12 -6.58%
CCOc1ccc(NC(=O)c2nc3nc(C)cc(C(F)F)n3n2)cc1 32.5%
Cc1cc(C)c2c(-n3cccc3)c(C(=O)NCc3cccc(F)c3)sc2n1 -2.62%
CC(=O)Nc1ccc(NC(=O)CCSCCc2ccccn2)cc1 -13.1%
CCOc1ccc(CCNC(=O)CN2C(=O)COc3ccc(S(=O)(=O)N4CCCCCC4)cc32)cc1 -11.5%
CC(=O)c1cccc(NC(=O)Cn2c(=O)oc3cc(S(=O)(=O)N4CCCC4)ccc32)c1 19.2%
CCC(=O)C1=C(c2ccc(OC)c(OC)c2)N(C(=O)CC)n2c(CC)nnc2S1 -80.2%
Cc1ccc(NC(=O)c2c(NC(=O)Cc3ccccc3)sc3c2CCCC3)cc1 -16.4%
c1ccc(CN(CC2=NCCN2)c2ccccc2)cc1 -0.903%
CN(C)c1ccc(-c2nnc3n(Cc4ccccc4)c(=O)c4ccccc4n23)cc1 26.3%
CCN(c1nc(N)c(C(=O)N=C(N)N)nc1Cl)C(C)C 16.6%
N#Cc1c(-n2ncnc2-c2cccc(Br)c2)sc2c1CCCCC2 13.1%
COc1ccc(-n2c(SCC(=O)Nc3cccc(C)c3C)nc3c([nH]c4ccccc43)c2=O)cc1 -18.5%
CN(C)c1ccc(CNC(=O)c2ccc(NC(=O)N3CCCCc4ccccc43)cc2)cc1 -9.12%
CC(C)(C)c1ccc(Oc2ccc(NC(=O)CCC(=O)OCC(=O)c3ccccc3)cc2)cc1 -14.3%
Cc1ccc2oc(=O)c3cc(C(=O)N4CCN(c5ccccc5F)CC4)sc3c2c1 2.19%
Cc1ccc(Cl)cc1N1CCN(C(=O)CCCn2c(=O)[nH]c3ccc(Br)cc3c2=O)CC1 16.3%
CCc1ccccc1NC(=O)C1CCN(c2cnccn2)CC1 -8.28%
COc1ccc2c(c1)c1c(c(=O)n(-c3ccc(OC)c(OC)c3)c(=O)n1Cc1ccccc1F)n2C -15.6%
COc1cc(NC(=O)CSc2nccn2C)cc(OC)c1OC -2.8%
CC(=O)c1ccc(Nc2ccc3cc(S(=O)(=O)N4CCCC4)ccc3n2)cc1 -20.6%
O=C(CCn1cnnn1)Nc1cc(C(F)(F)F)cc(C(F)(F)F)c1 8.43%
CC(C)Oc1cccc(C2CC(=O)Nc3cc4c(cc32)OCO4)c1 (centres undefined) 34.8%
CC(=O)c1nnn(-c2ccc(C)cc2Cl)c1C -9.08%
O=C(NCCS(=O)(=O)N1CCN(c2ccc(F)cc2)CC1)c1cccc(C(F)(F)F)c1 0.454%
CCCCSCCCNC(=O)c1cn(C)c2ccc(S(=O)(=O)N3CCCCCC3)cc2c1=O -5.3%
CC(C)CCn1nnc2sc(-c3ccccc3)cc2c1=O 30.6%
Cc1cccc(NC(=O)c2sc3nc4c(cc3c2N)CN(C(C)C)CC4)c1 -3.35%
CCc1ccc(S(=O)(=O)Nc2ccc3[nH]c(=O)sc3c2)cc1 -2.26%
Cc1cccc(N2CCN(C(=O)CN3C(=O)COc4ccc(S(=O)(=O)N5CCOCC5)cc43)CC2)c1C -20.8%
CC1=C(C(=O)OC2CCCCCC2)C(c2cccc(F)c2F)CC(=O)N1 (centres undefined) -9.26%
Clc1ccc(N2CCN(Cc3cc4ccccn4n3)CC2)cc1 0.444%
O=C(O)C1=CCCN(CCON=C(c2ccccc2)c2ccccc2)C1 -15.3%
CCC1CCCCN1C(=O)CSc1nc(-c2ccc(OC)c(OC)c2)cc(C(F)(F)F)n1 (centres undefined) 26.1%
Cc1cc([N+](=O)[O-])ccc1NC(c1nnc(-c2ccccc2)o1)c1ccccc1F (centres undefined) -13.5%
COc1cc(NC(=O)CCCc2nnc3n(CC(C)C)c(=O)c4sccc4n23)cc(OC)c1 -7.12%
CCOC(=O)c1cc2c(=O)n3ccccc3nc2n(Cc2ccco2)c1=NC(=O)c1cccc(F)c1 -21.4%
Fc1ccc(Nc2nc(SCc3ccccc3F)nc3ccccc23)cc1 -1.37%
Cc1ccc(Cn2c(SCC(=O)NCc3ccccc3Cl)nc3ccsc3c2=O)cc1 -15.4%
Cc1nc2cc(C(=O)NC3CCCCCC3)ccc2n1-c1ccc(Br)cc1 -18.1%

Source: PubChem BioAssay AID1346428 (National Center for Advancing Translational Sciences (NCATS), 2018)
